# According to the supplement of paper PMC8728848:
# Some of the results follow.
# Biological target: Neu5Gc(b2-6)Gal(b1-4)GlcNAc
# Assay: glycan array binding signal (z-score within array); higher = stronger binding
# Settings: glycan notation: IUPAC condensed, linker removed
# Summary of the method: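 Arrays were curated from the Consortium for Functional Glycomics database, 3228 in total, and kept only where the protein sequence was available. Binding is expressed as a within-array Z-score. This score was averaged across arrays of the same protein sequence at different concentrations or buffers and across linkers, and negative values can be read as non-binding.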
binder,measurement,value
Mermaid3 (Stilbonema majum) (protein) MGSSHHHHHHSSGLVPRGSHMAASGWLRSPQGTVVKLYRRSLSWSKADEFCKDVDGRLVVDRTADMHLFLIKNVLKEKKSRVWVGLRRTASHSRTWIWSDGTRQNEGDLDANLWLRDEPNDAAGEEECALFMYSPWEKAWGLNDYLCRGGCRNYQFICEKWIR,glycan array binding signal (z-score),-0.424
